Data published in the supplement of paper PMC4466236.
In all, about 33,000 sequences were measured (“E-score (dimensionless, -0.5 to 0.5)”: median about -0.058, highest 2% from about 0.35 on). This is one part of the list.

tested on: MvaT; experiment: PBM 8-mer E-score (mean of HK and ME arrays) (E-score (dimensionless, -0.5 to 0.5)); higher = stronger relative binding preference; most listed sequences are background and not binding sites
Method in brief: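 Full-length P. aeruginosa MvaT, with glutathione S-transferase fused to its N-terminus (cloned into pTH6838 by isothermal assembly), was tested by protein binding microarray using a previously described protocol. Two universal double-stranded 60-mer arrays (ME and HK) were used, each with a constant 25-mer primer region and a variable 35-mer region covering all 8-mers. The rank-based 8-mer E-score (-0.5 to 0.5) is the mean of the two arrays, parsed with a custom Python script.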

| Sequence | PBM 8-mer E-score |
| --- | --- |
| AGCCGAAC | -0.112 |
| CCAGCACG | -0.226 |
| ACATTCCT | 0.075 |
| CATCTCTA | -0.0258 |
| AAGAACCG | -0.0221 |
| ACGAACAG | -0.0615 |
| GCCAAAAA | -0.0483 |
| ATAAACAC | 0.296 |
| CGCCGATC | -0.257 |
| TGGGACAA | 0.0643 |
| GGCGTAAA | 0.0143 |
| ATTGAGAA | 0.141 |
| ACCGTCGA | -0.144 |
| CGTCCATC | -0.223 |
| CGAAGATC | -0.0561 |
| AGTGGTAA | -0.0328 |
| ACCTGTCG | -0.277 |
| CGTCGAAG | -0.138 |
| CTAAATAC | 0.232 |
| CTTGATGA | -0.0826 |
| TGACTAAA | 0.186 |
| AAAAGGCT | -0.126 |
| ACTAGGTA | -0.0523 |
| CCGACATA | -0.000617 |
| TGGGCCCA | -0.248 |

| Sequence | PBM 8-mer E-score |
| --- | --- |
| TAACCAAA | 0.131 |
| GTACACAC | -0.0332 |
| ACTACCTG | -0.0409 |
| GAGTGGCA | -0.194 |
| AGTCTCAA | 0.0758 |
| CAGCCACG | -0.218 |
| ACAAGGCA | -0.0876 |
| CCTTGGAA | -0.119 |
| GTGGCGGA | -0.0799 |
| AGGATACA | 0.0408 |
| AAACTCTT | 0.15 |
| GACAAGGA | -0.159 |
| CTAGTGCC | -0.309 |
| CCTGAGCA | -0.239 |
| ACTACCAC | 0.175 |
| AGAAATCC | -0.0423 |
| AGGGATTA | -0.0207 |
| AATCCGTC | -0.0357 |
| CGAAGAAG | -0.255 |
| ACCCAAGC | -0.128 |
| GAACGGGA | -0.0641 |
| CCTTTCTC | -0.202 |
| CGTACCGA | -0.282 |
| CAGTCATC | -0.118 |
| CCACCTGC | -0.224 |

| Sequence | PBM 8-mer E-score |
| --- | --- |
| ATATATTC | 0.454 |
| ACAAACAA | 0.171 |
| CTGCATCC | -0.172 |
| GTCCTTAA | -0.0237 |
| AATCCGGC | 0.0183 |
| CCTAATTA | 0.358 |
| CCCCCATC | -0.234 |
| ATAGTCTA | 0.277 |
| TCCGTCCA | -0.2 |
| TAGGTCAA | 0.0983 |
| CGTAATAG | 0.173 |
| CGTCATGA | -0.165 |
| ATACCGAG | -1.06e-05 |
| ATTTGCCC | 0.0401 |
| ACTGGTAC | -0.138 |
| CTCATTTC | -0.0714 |
| CGTGAACA | 0.00312 |
| AATTAGGC | 0.243 |
| ATATGTGC | 0.326 |
| ACCCGAAA | -0.065 |
| ACGAGGTC | -0.148 |
| GGGTATTA | 0.288 |
| GGCCGTAC | -0.216 |
| CATAGAGG | -0.186 |
| GCGGGTAA | 0.131 |

| Sequence | PBM 8-mer E-score |
| --- | --- |
| AGCATTAT | 0.245 |
| AGGAATGC | -0.00138 |
| AATCCGAG | -0.00394 |
| AACAGCAC | -0.103 |
| GCTGAGGA | -0.193 |
| ACGGTTAG | -0.0976 |
| TAACAGCA | 0.251 |
| ACGTACCA | -0.0602 |
| AATCTCTC | -0.0667 |
| GCATCGGA | -0.11 |
| CGGATTCA | 0.069 |
| GGCCTTGA | -0.287 |
| TCTTTCAA | 0.206 |
| CTTTGACC | -0.131 |
| AGTCTTTG | 0.155 |
| GTAGTGGA | -0.105 |
| ACCACTCG | -0.182 |
| CCCTCCTC | -0.351 |
| ACCCTAGC | -0.142 |
| ATACATAC | 0.319 |
| ATAGCAGC | 0.0386 |
| AAATAAGT | 0.38 |
| GATCGAAC | -0.0964 |
| CAAGTTTA | 0.206 |
| GCGGTTAC | -0.192 |

| Sequence | PBM 8-mer E-score |
| --- | --- |
| CCCAGTGC | -0.173 |
| CGAACGAA | -0.129 |
| AGCTCTCA | -0.247 |
| GTTTTGCA | 0.077 |
| AGTTTCTG | 0.074 |
| GAGCTTCA | -0.283 |
| ACGAATTG | 0.15 |
| GTTTAGTA | 0.261 |
| AAGCTCTG | -0.304 |
| CTAAGCAA | 0.0197 |
| AAGCTGGC | -0.254 |
| CAGGGAAA | 0.0169 |
| AATCCGAA | 0.0294 |
| GCATTTCA | 0.0481 |
| GATATGGA | 0.105 |
| AGGTTCGG | -0.0994 |
| AGGCGACA | -0.0475 |
| ATACATTA | 0.39 |
| ATCCGTGG | -0.305 |
| AATGTCCC | -0.0667 |
| AGACCGGC | -0.122 |
| GACTAGTC | -0.0899 |
| AGTATACC | 0.234 |
| CAGAACCC | -0.277 |
| CTGCCCTC | -0.248 |

| Sequence | PBM 8-mer E-score |
| --- | --- |
| GTACCCAA | -0.0609 |
| CACATCTA | 0.085 |
| AGAACCGA | -0.0571 |
| GCGACCAC | -0.154 |
| CAAAGGTA | -0.113 |
| TGTTCCAA | 0.0797 |
| GGCACAAC | -0.19 |
| CGAGCTCC | -0.312 |
| GTTCCTAA | -0.0274 |
| CCAACTCA | 0.0702 |
| ACATTGAC | 0.169 |
| GCATGAGA | -0.173 |
| CCTCACAC | -0.14 |
| ACTACTGC | 0.0618 |
| CAAACGGG | -0.0101 |
| AGGGGTGA | -0.056 |
| ACTTTGGC | 0.0122 |
| ACTATCGA | 0.201 |
| ATAAAACG | 0.213 |
| CCGCAGCG | -0.26 |
| GAACCGTA | -0.0857 |
| GCGTAAAC | -0.0643 |
| CTCGCTGA | -0.159 |
| ATGAACGC | -0.14 |
| GTCGAAAC | 0.0163 |

| Sequence | PBM 8-mer E-score |
| --- | --- |
| GGTTGTAC | 0.11 |
| CAAAAATA | 0.287 |
| CACTTCGA | -0.0103 |
| CTACAGGC | -0.224 |
| ATAGCGTC | -0.0949 |
| GCCACGCC | -0.196 |
| GATTCAGC | -0.0394 |
| CCAAATCC | -0.193 |
| ACATTTCC | 0.134 |
| GCGAGGGA | -0.251 |
| ACATGTTG | 0.11 |
| CTATCCGA | -0.0723 |
| CAGACTGG | -0.0253 |
| CCACATCC | -0.0308 |
| TCCTATAA | 0.161 |
| CAATAATG | 0.322 |
| TGAAGAAA | 0.214 |
| GAAGACAA | 0.0767 |
| GCCTAGAA | -0.0688 |
| AGTCGTGC | -0.0662 |
| AGGTCCCC | -0.37 |
| CAGGTGCG | -0.156 |
